# The other results are listed elsewhere or left out.
# Assays:
# Experiment in all cases: glycan array binding signal (z-score within array); higher = stronger binding
# Conditions in all cases: glycan notation: IUPAC condensed, linker removed
# [1] = molecular target: Neu5Ac(a2-3)Gal(b1-4)GlcNAc(b1-2)[Neu5Ac(a2-3)Gal(b1-4)GlcNAc(b1-4)]Man(a1-3)[GlcNAc(b1-4)][Neu5Ac(a2-3)Gal(b1-4)GlcNAc(b1-4)Man(a1-6)]Man(b1-4)GlcNAc(b1-4)GlcNAc
# Outline: (§1)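 Arrays were curated from the Consortium for Functional Glycomics database, 3228 in total, and kept only where the protein sequence was available. Binding is expressed as a within-array Z-score. This score was averaged across arrays of the same protein sequence at different concentrations or buffers and across linkers, and negative values can be read as non-binding.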
# [2] = molecular target: Neu5Ac(a2-3)Gal(b1-4)GlcNAc(b1-2)[Neu5Ac(a2-3)Gal(b1-4)GlcNAc(b1-6)]Man(a1-6)[Neu5Ac(a2-3)Gal(b1-4)GlcNAc(b1-2)Man(a1-3)]Man(b1-4)GlcNAc(b1-4)GlcNAc
# Outline: as §1
# [3] = molecular target: Neu5Ac(a2-3)Gal(b1-4)GlcNAc(b1-2)[Neu5Ac(a2-3)Gal(b1-4)GlcNAc(b1-6)]Man(a1-6)[Neu5Ac(a2-3)Gal(b1-4)GlcNAc(b1-2)Man(a1-3)][GlcNAc(b1-4)]Man(b1-4)GlcNAc(b1-4)GlcNAc
# Outline: as §1
# [4] = molecular target: Neu5Ac(a2-3)Gal(b1-4)GlcNAc(b1-3)Gal
# Outline: as §1
# [5] = molecular target: Neu5Ac(a2-3)Gal(b1-4)GlcNAc(b1-3)Gal(b1-3)GlcNAc
# Outline: as §1
# [6] = molecular target: Neu5Ac(a2-3)Gal(b1-4)GlcNAc(b1-3)Gal(b1-4)GlcNAc
# Outline: as §1
# [7] = molecular target: Neu5Ac(a2-3)Gal(b1-4)GlcNAc(b1-3)Gal(b1-4)GlcNAc(b1-2)Man(a1-3)[Neu5Ac(a2-3)Gal(b1-4)GlcNAc(b1-3)Gal(b1-4)GlcNAc(b1-2)Man(a1-6)]Man(b1-4)GlcNAc(b1-4)GlcNAc
# Outline: as §1
# [8] = molecular target: Neu5Ac(a2-3)Gal(b1-4)GlcNAc(b1-3)Gal(b1-4)GlcNAc(b1-3)Gal(b1-4)GlcNAc
# Outline: as §1
# [9] = molecular target: Neu5Ac(a2-3)Gal(b1-4)GlcNAc(b1-3)Gal(b1-4)GlcNAc(b1-3)Gal(b1-4)GlcNAc(b1-2)Man(a1-3)[Neu5Ac(a2-3)Gal(b1-4)GlcNAc(b1-3)Gal(b1-4)GlcNAc(b1-3)Gal(b1-4)GlcNAc(b1-2)Man(a1-6)]GalNAc
# Outline: as §1
# [10] = molecular target: Neu5Ac(a2-3)Gal(b1-4)GlcNAc(b1-3)Gal(b1-4)GlcNAc(b1-3)GalNAc
# Outline: as §1
# [11] = molecular target: Neu5Ac(a2-3)Gal(b1-4)GlcNAc(b1-3)Gal(b1-4)GlcNAc(b1-3)[Neu5Ac(a2-3)Gal(b1-4)GlcNAc(b1-3)Gal(b1-4)GlcNAc(b1-6)]GalNAc
# Outline: as §1
# [12] = molecular target: Neu5Ac(a2-3)Gal(b1-4)GlcNAc(b1-3)Gal(b1-4)GlcNAc(b1-6)[Gal(b1-3)]GalNAc
# Outline: as §1
# [13] = molecular target: Neu5Ac(a2-3)Gal(b1-4)GlcNAc(b1-3)Gal(b1-4)[Fuc(a1-3)]GlcNAc
# Outline: as §1
# [14] = molecular target: Neu5Ac(a2-3)Gal(b1-4)GlcNAc(b1-3)GalNAc
# Outline: as §1
# [15] = molecular target: Neu5Ac(a2-3)Gal(b1-4)GlcNAc(b1-3)[Neu5Ac(a2-3)Gal(b1-4)GlcNAc(b1-6)]GalNAc
# Outline: as §1
# [16] = molecular target: Neu5Ac(a2-3)Gal(b1-4)GlcNAc(b1-6)GalNAc
# Outline: as §1
# [17] = molecular target: Neu5Ac(a2-3)Gal(b1-4)GlcNAc(b1-6)[Gal(b1-3)]GalNAc
# Outline: as §1
# [18] = molecular target: Neu5Ac(a2-3)Gal(b1-4)GlcNAc(b1-6)[Neu5Ac(a2-3)Gal(b1-3)]GalNAc
# Outline: as §1
# [19] = molecular target: Neu5Ac(a2-3)Gal(b1-4)GlcNAc6S
# Outline: as §1
# [20] = molecular target: Neu5Ac(a2-3)Gal(b1-4)[Fuc(a1-3)]GlcNAc
# Outline: as §1
# [21] = molecular target: Neu5Ac(a2-3)Gal(b1-4)[Fuc(a1-3)]GlcNAc(b1-2)Man
# Outline: as §1
# [22] = molecular target: Neu5Ac(a2-3)Gal(b1-4)[Fuc(a1-3)]GlcNAc(b1-3)Gal
# Outline: as §1
# [23] = molecular target: Neu5Ac(a2-3)Gal(b1-4)[Fuc(a1-3)]GlcNAc(b1-3)Gal(b1-4)GlcNAc
# Outline: as §1
# [24] = molecular target: Neu5Ac(a2-3)Gal(b1-4)[Fuc(a1-3)]GlcNAc(b1-3)Gal(b1-4)[Fuc(a1-3)]GlcNAc(b1-3)Gal(b1-4)[Fuc(a1-3)]GlcNAc
# Outline: as §1
# [25] = molecular target: Neu5Ac(a2-3)Gal(b1-4)[Fuc(a1-3)]GlcNAc(b1-3)GalNAc
# Outline: as §1
# [26] = molecular target: Neu5Ac(a2-3)Gal(b1-4)[Fuc(a1-3)]GlcNAc(b1-6)[Gal(b1-3)]GalNAc
# Outline: as §1
# [27] = molecular target: Neu5Ac(a2-3)Gal(b1-4)[Fuc(a1-3)]GlcNAc(b1-6)[Neu5Ac(a2-3)Gal(b1-3)]GalNAc
# Outline: as §1
# [28] = molecular target: Neu5Ac(a2-3)Gal(b1-4)[Fuc(a1-3)]GlcNAc6S
# Outline: as §1
# [29] = molecular target: Neu5Ac(a2-3)Gal6S(b1-4)GlcNAc
# Outline: as §1
# [30] = molecular target: Neu5Ac(a2-3)Gal6S(b1-4)[Fuc(a1-3)]GlcNAc
# Outline: as §1
# Neu5Ac(a2-3)GalNAc = molecular target: Neu5Ac(a2-3)GalNAc
# Outline: as §1
# [31] = molecular target: Neu5Ac(a2-3)GalNAc(b1-4)GlcNAc
# Outline: as §1
# [32] = molecular target: Neu5Ac(a2-3)[GalNAc(b1-4)]Gal(b1-4)Glc
# Outline: as §1
# [33] = molecular target: Neu5Ac(a2-3)[GalNAc(b1-4)]Gal(b1-4)GlcNAc
# Outline: as §1
# [34] = molecular target: Neu5Ac(a2-3)[GalNAc(b1-4)]Gal(b1-4)GlcNAc(b1-3)GalNAc
# Outline: as §1
# [35] = molecular target: Neu5Ac(a2-3)[Neu5Ac(a2-6)]GalNAc
# Outline: as §1
# Neu5Ac(a2-6)Gal = molecular target: Neu5Ac(a2-6)Gal
# Outline: as §1
# [36] = molecular target: Neu5Ac(a2-6)Gal(b1-3)GlcNAc(b1-3)[Gal(b1-4)GlcNAc(b1-6)]Gal(b1-4)Glc
# Outline: as §1
# Neu5Ac(a2-6)Gal(b1-4)Glc = molecular target: Neu5Ac(a2-6)Gal(b1-4)Glc
# Outline: as §1
# [37] = molecular target: Neu5Ac(a2-6)Gal(b1-4)GlcNAc
# Outline: as §1
# [38] = molecular target: Neu5Ac(a2-6)Gal(b1-4)GlcNAc(b1-2)Man
# Outline: as §1
# [39] = molecular target: Neu5Ac(a2-6)Gal(b1-4)GlcNAc(b1-2)Man(a1-3)Man(b1-4)GlcNAc(b1-4)GlcNAc
# Outline: as §1
# [40] = molecular target: Neu5Ac(a2-6)Gal(b1-4)GlcNAc(b1-2)Man(a1-3)[Gal(b1-4)GlcNAc(b1-2)Man(a1-6)]Man(b1-4)GlcNAc(b1-4)GlcNAc
# Outline: as §1
# [41] = molecular target: Neu5Ac(a2-6)Gal(b1-4)GlcNAc(b1-2)Man(a1-3)[GlcNAc(b1-2)Man(a1-6)]Man(b1-4)GlcNAc(b1-4)GlcNAc
# Outline: as §1
# [42] = molecular target: Neu5Ac(a2-6)Gal(b1-4)GlcNAc(b1-2)Man(a1-3)[GlcNAc(b1-4)][Neu5Ac(a2-6)Gal(b1-4)GlcNAc(b1-2)Man(a1-6)]Man(b1-4)GlcNAc(b1-4)GlcNAc
# Outline: as §1
binder,measurement,setting,value
GS13455A-bfa-343-25-343 (Bacteroides fragilis) (protein) KDEIQIVDQDTSWQMDNKYIEEDIREQLGIDPFTDLVYLGYYGNPYTQLEAINDLVNTTLVGKNELSFKVKVTKPYKEDIKVNLMKEDKLVTDFPEMAEGIPLFPSENCTFEGGVLKAGELETTVKLTLKDVEKLNNLSGYVMAIKLTMEGSHEHLAIARTRSSYFVKLNLSIRLDNIDSSNKKIEGKGFNKEISFKSDIRPDKLGSLNDGNFTANNWYTSNANNYLTIILPEKQSLKGFRLDTNTSPSGSYMLKSCRVMVETPDGNWVNHGVFDRKSMDGIAYISFKKPVECTKVRFENMMAFNGRFSVDVNEVTAFR,glycan array binding signal (z-score),[1],-0.715
same,glycan array binding signal (z-score),[2],-0.056
same,glycan array binding signal (z-score),[3],0.236
same,glycan array binding signal (z-score),[4],-0.573
same,glycan array binding signal (z-score),[5],0.34
same,glycan array binding signal (z-score),[6],-0.123
same,glycan array binding signal (z-score),[7],0.877
same,glycan array binding signal (z-score),[8],-0.592
same,glycan array binding signal (z-score),[9],0.225
same,glycan array binding signal (z-score),[10],-0.534
same,glycan array binding signal (z-score),[11],0.259
same,glycan array binding signal (z-score),[12],-0.102
same,glycan array binding signal (z-score),[13],-0.308
same,glycan array binding signal (z-score),[14],-0.51
same,glycan array binding signal (z-score),[15],1.14
same,glycan array binding signal (z-score),[16],-0.227
same,glycan array binding signal (z-score),[17],-0.414
same,glycan array binding signal (z-score),[18],0.024
same,glycan array binding signal (z-score),[19],-0.101
same,glycan array binding signal (z-score),[20],0.334
same,glycan array binding signal (z-score),[21],-0.091
same,glycan array binding signal (z-score),[22],0.259
same,glycan array binding signal (z-score),[23],1.02
same,glycan array binding signal (z-score),[24],0.745
same,glycan array binding signal (z-score),[25],3.25
same,glycan array binding signal (z-score),[26],0.589
same,glycan array binding signal (z-score),[27],0.052
same,glycan array binding signal (z-score),[28],-0.142
same,glycan array binding signal (z-score),[29],-0.061
same,glycan array binding signal (z-score),[30],-0.398
same,glycan array binding signal (z-score),Neu5Ac(a2-3)GalNAc,-0.681
same,glycan array binding signal (z-score),[31],0.281
same,glycan array binding signal (z-score),[32],-0.361
same,glycan array binding signal (z-score),[33],0.266
same,glycan array binding signal (z-score),[34],-0.526
same,glycan array binding signal (z-score),[35],0.32
same,glycan array binding signal (z-score),Neu5Ac(a2-6)Gal,-0.078
same,glycan array binding signal (z-score),[36],-0.125
same,glycan array binding signal (z-score),Neu5Ac(a2-6)Gal(b1-4)Glc,-0.17
same,glycan array binding signal (z-score),[37],-0.07
same,glycan array binding signal (z-score),[38],-0.322
same,glycan array binding signal (z-score),[39],-0.044
same,glycan array binding signal (z-score),[40],-0.38
same,glycan array binding signal (z-score),[41],0.878
same,glycan array binding signal (z-score),[42],-0.534

# Source: the supplement of paper PMC8728848
